Drawing on PubChem BioAssay AID463173 (ICCB-Longwood Screening Facility, Harvard Medical School, 2010), this text covers survival for 57 compounds.

The structures appear in SMILES notation. The campaign covered roughly 52,000 compounds. About 1,700 (3.3%) were called active. Rule as the data show it: active = survival mostly below about 52% (no sharp cut-off); inactive = mostly above about 56%. The list shows a part of the results.

The test has as its system Wild type. The test can be described thus: S. aureus survival, RN4220 and DeltatarO strains – OD600, teichoic acid synthesis inhibitors, primary screen (AID 463173). The note with it: S. aureus RN4220 wild type/DeltatarO growth, OD600, 18 h, stronger effect = lower value, screened at 18.75 µg/mL (by protocol).
As for `C/C(=N\NC(=O)c1cc2ccccc2cc1O)c1ccc(N)cc1`, the survival is inactive: 88%. As for `CC(=O)Oc1c(O)ccc2c(C)cc(=O)oc12`, the survival is inactive: 101%. Under `O=S(=O)(c1ccc2c(c1)OCCO2)N1CCN(c2ncccn2)CC1` stands inactive: 99%. Under `O=C1CSC(=Nc2cccc(C(=O)O)c2)N1` stands inactive: 101%. `CCOC(=O)Cc1ccc(NC(=O)NCc2ccc3c(c2)CCN3C(=O)CC)cc1`: the survival was inactive: 83%. `O=C(CCS(=O)(=O)c1cc(Br)cc2c1N(C(=O)C1CC1)CC2)Nc1ccc(Br)cc1F`: the survival was inactive: 86%. `CCc1ccccc1N(C)C(=O)Cn1cnc2sc(C)c(S(=O)(=O)N3CCN(c4ncccn4)CC3)c2c1=O`: the survival is inactive: 70%. Under `COc1ccc(NC(=O)Cn2c(=O)oc3cc(S(=O)(=O)N4CCC(C)CC4)ccc32)c(OC)c1` stands inactive: 96%.

With `CCOc1ccccc1CNC(=O)CCn1ccc2cc(S(=O)(=O)N3CCC(C)CC3)ccc21`, the survival was inactive: 69%.

As to `COC(=O)c1ccc(Cn2nnc3sc4c(c3c2=O)CCC(C)C4)cc1` (configuration not stated), the survival is inactive: 75%. In the case of `CCCS(=O)(=O)c1c(Nc2ccccc2C)sc(C(=O)c2ccccc2)c1N`, the survival is inactive: 46%. Under `Cc1ccc(NS(=O)(=O)c2cc(Br)cc3c2N(C(=O)C2CC2)CC3)cc1C` stands inactive: 69%.

Regarding `OCc1cc(CO)c(O)c(CCc2ccccc2)n1`, the survival was inactive: 92%. Turning to `CCn1c(CSc2nc(C)cc(C)n2)nnc1SCc1ccccc1`, the survival is inactive: 110%.

With `CCOc1ccc(CCNC(=O)c2cc3c(=O)[nH]c4ccc(C)cc4c3s2)cc1OCC`, the survival is inactive: 65%. As for `COc1ccc(-c2nc(SCC(=O)NCCc3ccc(OC)c(OC)c3)n[nH]2)cc1`, the survival is inactive: 72%. As for `O=C(NC1CCCc2ccccc21)c1ccc2c(c1)sc1nc(-c3ccc(F)cc3)cn12` (configuration not stated), the survival is inactive: 79%. For `O=C(CCCN1C(=O)C(c2ccccc2)Oc2cccnc21)Nc1ccc(Br)cc1F` (configuration not stated), the survival was inactive: 83%. Take `COc1ccc2c(CNCCc3cccs3)c(C(=O)O)n(Cc3ccccc3)c2c1`: the survival is inactive: 90%. For the compound `CCc1ccc2c(c1)NC(c1cccs1)=NC(c1ccc(F)cc1)=N2`, the survival was inactive: 63%.

As to `Cc1ccc(Cl)cc1NC(=O)C1CCC(CNS(=O)(=O)c2cccc3nsnc23)CC1` (configuration not stated), the survival is inactive: 87%. Consider `CC(=O)N(Cc1cccnc1)c1nc2c(C)c(C)ccc2s1`, for which the survival was inactive: 71%. In the case of `CCCC(=O)NCc1nc2cccnc2n1Cc1ccc(F)cc1` it was inactive: 98%. Take `Cc1cccc(Cn2nnc3c(=O)[nH]c(C4CCN(C(=O)c5ccccc5F)CC4)nc32)c1`: the survival was inactive: 83%.

On to `Cc1cccc(NC(=O)CSc2nc(=O)n(CCN3CCOCC3)c3c2CCC3)c1C`, for which the survival is inactive: 85%. Regarding `Cc1ccc(NC(=O)Cn2c(=O)n(Cc3ccc4c(c3)OCO4)c(=O)c3ccc(C(=O)NC4CCCCC4)cc32)cc1`, the survival is inactive: 80%. Consider `CCOC(=O)c1ccc(NC(=O)Cc2coc3cc(C)cc(C)c23)cc1`, for which the survival was inactive: 95%. In the case of `O=C(Nc1cc(-c2nc3ccccc3o2)ccc1Cl)c1cccc2c(Cl)cccc12` it was inactive: 64%; in that of `CCN(C(=O)CSc1nnc(C)n2c1cc1occc12)c1ccccc1`, inactive: 104%. Under `CCOc1ccc(NC(=O)c2cc3c(=O)n4cccc(C)c4nc3s2)cc1` stands inactive: 76%; under `CCOC(=O)c1c(-c2ccccc2)oc2ccc(NS(=O)(=O)c3ccccc3)cc12`, active: 7%; under `COc1ccc(S(=O)(=O)NCc2cccn2Cc2cccc(C)c2)cc1OC`, inactive: 84%.

With `CCCCc1nn2c(=O)cc(COC(=O)c3ccccc3NC(=O)C3CCCCC3)nc2s1`, the survival is inactive: 82%. As to `COc1ccc(CNC(=O)c2cnc(N3CCCC3)nc2C)cc1`, the survival is inactive: 68%.

`O=C(CSc1cn(CC(=O)N2CCOCC2)c2ccccc12)Nc1ccccc1C(F)(F)F`: the survival is inactive: 91%. Under `Cc1cc([N+](=O)[O-])ccc1NC(=O)CSc1nccn1C` stands inactive: 135%. With `COc1cccc(NC(=O)N2C3CCC2CC(O)(c2cccnc2)C3)c1` (configuration not stated), the survival was inactive: 112%. For the compound `CCOC(=O)CSc1nc2c([nH]c3ccccc32)c(=O)n1-c1ccc(OCC)cc1`, the survival is inactive: 80%.

As for `COc1ccc(-c2c(C)c3ccc(O)c(CN4CCN(C)CC4)c3oc2=O)cc1OC`, the survival is inactive: 74%. Take `COc1ccc2c(c1)c1c(c(=O)n(-c3cccc(Cl)c3)c(=O)n1C)n2C`: the survival is inactive: 70%.

Turning to `Cc1ccccc1C(=O)Nc1nc2c(s1)CC(C(C)(C)C)CC2` (configuration not stated), the survival was inactive: 124%. Consider `COc1ccc(S(=O)(=O)c2cn(CC(=O)Nc3ccccc3)c3ccc(Cl)cc3c2=O)cc1`, for which the survival was inactive: 70%. With `Cc1cccc2sc(N(Cc3cccnc3)C(=O)C3CCCCC3)nc12`, the survival is inactive: 75%.

For `COc1ccc(CSc2nc3ccncc3n2Cc2nc(-c3ccc(OC)c(OC)c3)oc2C)cc1`, the survival is inactive: 85%. Regarding `Clc1cccc(-c2noc3ncnc(NC4CCCCC4)c23)c1`, the survival was inactive: 79%. For `COc1ccc(Br)cc1CNC(=O)CCC(=O)N1CCSc2ccccc21`, the survival was inactive: 65%.

`CN(C(=O)c1cccc(Nc2ccc(-c3ccc4c(c3)OCCO4)nn2)c1)C1CCCCC1`: the survival was inactive: 83%. Regarding `COc1ccccc1CNC(=O)Nc1ccc2c(c1)N(C)C(=O)c1ccccc1S2`, the survival was inactive: 93%.

`O=C(CSc1nc2c([nH]c3ccccc32)c(=O)n1-c1ccc(F)cc1)N1CCCCCC1`: the survival was inactive: 65%. In the case of `COc1cccc2cc(-c3nc(-c4cccs4)no3)c(=O)oc12` it was inactive: 74%; in that of `CN1C(=O)C2CCCCN2c2ccc(C(=O)NCc3ccccc3Br)cc21` (configuration not stated), inactive: 65%.

On to `COc1cc(NC(=O)CCc2c(C)nc3c(c(C)nn3-c3ccccc3)c2C)cc(OC)c1OC`, for which the survival is inactive: 74%. With `CCSc1nnc(C2CCCN(CC(=O)Nc3nc(C)cs3)C2)n1C` (configuration not stated), the survival is inactive: 118%. For the compound `O=C(Cn1cc(SCc2cccc(C(F)(F)F)c2)c2ccccc21)N1CCCCCC1`, the survival is inactive: 91%. In the case of `COc1cccc(-c2cc(C(=O)NCCc3ccc(C)cc3)[nH]n2)c1`, the survival was inactive: 126%.

As to `CC(=O)c1c(C)n(-c2cccc(C)c2)c2ccc(OC(=O)COc3ccccc3)cc12`, the survival was inactive: 70%. Under `Cc1ccc(NS(=O)(=O)c2c(C(=O)N3CCCCCC3)c(C)n(C)c2C)cc1F` stands inactive: 92%.
